The list shows a part of the results. The full chains were built here from the parent and the listed change. Values near 0.05 are background.
B1: TEV protease; numbered along this chain (parent)
chain: MGESLFKGPRDYNPISSSICHLTNESDGHTTSLYGIGFGPFIITNKHLFRRNNGTLVVQSLHGVFKVKDTTTLQQHLVDGRDMIIIRMPKDFPPFPQKLKFREPQREERICLVTTNFQTKSMSSMVSDTSCTFPSGDGIFWKHWIQTKDGQCGSPLVSTRDGFIVGIHSASNFTNTNNYFTSVPKNFMELLTNQEAQQWVSGWRLNADSVLWGGHKVFMVKPEEPFQPVKEATQL

Variants of: B1
Assay: raw area under fraction-flipped curve 0-4 h after induction (AUC4h, not background-subtracted), DNA-recorder readout of cleavage of the substrate (dimensionless); higher = more cleavage of the substrate by the protease variant
Details: temperature: 34 °C; time window: 0-4 h after rhamnose induction
Description: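 In vivo DNA recorder in E. coli TOP10(DE3) ΔrhaA at 34 °C. Each TEVp single-site mutant (parent TEVp 0) is paired with a single-site variant of the 7-mer TEVs (canonical ENLYFQ|S). The substrate sits between flexible linkers in a Bxb1-sfGFP-TEVs-SsrA fusion, so cleavage stabilises Bxb1 and speeds flipping of a recombination array, read by NGS. The value is the raw area under the fraction-flipped curve over 0-4 h after rhamnose induction (AUC4h), with ≥20 reads per time point. It is not background-subtracted; inactive controls average about 0.047.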
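Also: Bxb1 expression induced with 0.2% (w/v) L-rhamnose at OD600 near 0.5, cultures sampled hourly, flipped fraction per protease–substrate barcode pair counted by paired-end Illumina sequencing.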

Variant	area with substrate ENLYFAS	area with substrate ENLYFCS	area with substrate ENLYFDS	area with substrate ENLYFES	area with substrate ENLYFFS	area with substrate ENLYFGS	area with substrate ENLYFHS	area with substrate ENLYFIS	area with substrate ENLYFKS	area with substrate ENLYFMS	area with substrate ENLYFNS	area with substrate ENLYFPS	area with substrate ENLYFRS	area with substrate ENLYFTS	area with substrate ENLYFVS	area with substrate ENLYFYS	area with substrate ENLYFWS	area with substrate ENLYFLS	area with substrate ENLYFSS
MGESLFKGPRDYNPISSSICHLTNESDGHTTSLYGIGFGPFIITNKHLFRRNNGTLVVQSLHGVFKVKDTTTLQQHLVDGRDMIIIRMPKDFPPFPQKLKFREPQREERICLVTTNFQTKSMSSMVFDTSCTFPSGDGIFWKHWIQTKDGQCGSPLVSTRDGFIVGIHSASNFTNTNNYFTSVPKNFMELLTNQEAQQWVSGWRLNADSVLWGGHKVFMVKPEEPFQPVKEATQL [S127F]	0.058	0.0643	0.0613	0.0662	0.0719	0.0584	0.0578	0.0545	0.0676	0.0763	0.0758	0.0557	0.057	0.0652	0.0428	0.0585	–	–	–
MGESLFKGPRDYNPISSSICHLTNESDGHTTSLYGIGFGPFIITNKHLFRRNNGTLVVQSLHGVFKVKDTTTLQQHLVDGRDMIIIRMPKDFPPFPQKLKFREPQREERICLVTTNFQTKSMSSMVSDTSCTFPSGDGIFWKHWIQTKDGQCGSPLVSTRDGFIVGIHSASNFTNTNNYFTSVPKNFMELLTNQEAQQWVSGWRLNADSVLWGGHKVKMVKPEEPFQPVKEATQL [F218K]	0.0317	–	–	0.0563	0.0669	–	0.057	0.0557	0.0547	0.0702	0.0538	0.0571	–	0.0549	–	–	–	–	–
MGESLFKGPRDYNPISSSICHLTNESDGHTTSLYGIGFGPFIITNKHLFRRNNGTLVVQSLHGVFKVKDTTTLQQHLVDGRDMIIIRMPKDFPPFPQKLKFREPQREERICLVTTNFQTKSMSSMVSDTSCTFPSGDGIFWKHWIQTKDGQCGSPLVSTRDGFIVGIHSASNFTNTNNYFTSVPKNFMELLTNQEAQQWVSGWRLIADSVLWGGHKVFMVKPEEPFQPVKEATQL [N206I]	0.0563	0.0567	0.0519	0.0734	–	–	–	0.052	–	0.0649	–	0.0627	–	0.044	–	0.0648	–	–	–
MGESLFKGPRDYNPISSSICHLTNESDGHTTSLYGIGFGPFIITNKHLFRRNNGTLVVQSLHGVFKVKDTTTLQQHLVDGRDMIIIRMPKDFPPFPQKLKFREEQREERICLVTTNFQTKSMSSMVSDTSCTFPSGDGIFWKHWIQTKDGQCGSPLVSTRDGFIVGIHSASNFTNTNNYFTSVPKNFMELLTNQEAQQWVSGWRLNADSVLWGGHKVFMVKPEEPFQPVKEATQL [P104E]	0.0564	–	–	0.0606	0.0514	0.0272	–	0.0483	–	0.0503	0.0484	0.0485	0.0501	–	0.0492	0.0537	0.0446	–	–
MGESLFKGPRDYNPISSSICHLTNESDGHTTSLYGIGFGPFIITNKHLFRRNNGTLVVQSLHGVFKVKDTTTLQQHLVDGRDMIIIRMPKDFPPFPQKLKFREPQREERICLVTTNFQTKSMSSMVSDTSCTFPSGDGIFWKHWIQTKDGQCGSPLVSTRDGFIVGIHSASNFTNTNNYFTSVPKNFMELLTNQEAQQWVSGWRLNADSVLWGGHKVFMVCPEEPFQPVKEATQL [K221C]	0.0566	0.0546	0.0729	0.0417	0.0667	0.0746	0.0638	0.0633	0.0679	0.0731	0.0238	0.0656	–	0.0448	–	0.0531	0.0443	0.0617	0.0601
MGESLFKGPRDYNPISSSICHLTNESDGHTTSLYGIGFGPFIITNKHLFRRNNGTLVVQSLHGVFKVKDTTTLQQHLVDGRDMIIIRMPKDFPPFPQKLKFREPQREERICLVTTNFQTKSMSSMVSDTSCTFPSGDGIFWKHWIQTKDGQCGSPLVSTRDGFIVGIHSASNWTNTNNYFTSVPKNFMELLTNQEAQQWVSGWRLNADSVLWGGHKVFMVKPEEPFQPVKEATQL [F173W]	0.0568	0.0627	0.0562	–	0.0906	0.0717	0.0684	0.056	0.0686	0.0733	–	0.0635	0.0596	0.0638	0.0589	0.0526	0.0144	0.0599	–
MGESLFKGPRDYNPISSSICHLTNESDGHTTSLYGIGFGPFIITNKHLFRRNNGTLVVQSLHGVFKVKDTTTLQQHLVDGRDMIIIRMPKDFPPFPQKLKFREPQREERICLVTTNFQTKSMSSMVSDTSCTFPSGDGIFWKHWIQTKDGQCGSPLVSTRDGFIVGIHSASNFTNTNNYFTSVPKNFMELLTNQEAQQWVSGWRLNADSVLWGGHKVFMYKPEEPFQPVKEATQL [V220Y]	0.0663	0.0516	0.0452	0.0716	0.0461	–	0.0411	0.0678	0.0792	0.0603	–	0.073	0.0714	0.0599	–	0.061	–	–	–
MGESLFKGPRDYNPISSSICHLTNESDGHTTSLYGIGFGPFIITNKHLFRRNNGTLVVQSLHGVFKVKDTTTLQQHLVDGRDMIIIRMPKDFPPFPQKLKFREPQRECRICLVTTNFQTKSMSSMVSDTSCTFPSGDGIFWKHWIQTKDGQCGSPLVSTRDGFIVGIHSASNFTNTNNYFTSVPKNFMELLTNQEAQQWVSGWRLNADSVLWGGHKVFMVKPEEPFQPVKEATQL [E108C]	0.0558	–	0.067	0.0574	0.0641	–	0.0496	0.0556	0.0615	0.0535	0.0586	–	–	0.0407	0.0712	0.0815	0.0592	0.0656	0.0404
MGESLFKGPRDYNPISSSICHLTNESDGHTTSLYGIGFGPFIITNKHLFRRNNGTLVVQSLHGVFKVKDTTTLQQHLVDGRDMIIIRMPKDFPPFPQKLKFREPQREERICLVTTNFQTKSMSSMVSDTSCTFPSGDGIFWKHWIQCKDGQCGSPLVSTRDGFIVGIHSASNFTNTNNYFTSVPKNFMELLTNQEAQQWVSGWRLNADSVLWGGHKVFMVKPEEPFQPVKEATQL [T147C]	0.0565	0.0317	–	–	0.0761	–	–	0.0624	–	0.0692	0.0814	–	0.0633	0.0639	–	0.0574	0.0354	0.058	0.0623

Reference: the supplement of paper PMC12217912
